Experimental data reported in PubChem BioAssay AID1963576 (National Center for Advancing Translational Sciences (NCATS), 2024).
Screen size: about 46,000 compounds; about 60 (0.1%) were called active. Not shown: some 3% with an inconclusive outcome. Calls follow the shape of the dose curve; as a rule, active = well fitted inhibition curve with a large enough effect; inconclusive = small, poorly fitted or top-dose-only effect; inactive = no such curve, though single readings can be large or run the other way. This is one part of the list.

Test: Primary qHTS assay for Inhibitors of ovarian cancer metastasis using an organotypic tumor microenvironment (TME) model. Also: nearly all actives have a fitted effect of over 65% in size.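 As to activity change, negative = inhibition: plate controls were DMSO wells for no effect and tomatine positive control wells for full effect.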
Conditions: SKOV3ip1-GFP adhesion/invasion on 3D omental model, fluorescence; series mostly up to 45.8 µM; activity change, negative = inhibition: at the top concentration
Outline: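 Adhesion/invasion was scored as fixed GFP-labeled SKOV3ip1 cell counts (488/509 nm), normalized to DMSO and tomatine controls. Cancer cells in serum-free medium, with four compound doses (0.36-46 umol/L), sat 2 hr at RT then 16 hr at 37 C on a 48 hr fibroblast/mesothelial/ECM culture.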

outcome, inactive:
COc1ccc(-c2noc(CSc3nc4ccc(C)cc4[nH]3)n2)cc1
O=C(Cn1nc(Cc2cccnc2)c2ccccc2c1=O)Nc1ccc(F)c(Cl)c1
COc1ccccc1CNC(=O)CCn1c(=O)c2ccccc2n(CC(=O)Nc2cc(Cl)ccc2C)c1=O
O=C(Nc1cccc(C(=O)OCc2cc(=O)n3c4c(sc3n2)CCCC4)c1)c1cccc(F)c1
CCC(C)NC(=O)CCSc1nc(-c2ccc3c(c2)OCO3)cc(C(F)(F)F)n1 (stereo not drawn)
Cc1ccc(NC(=O)CSc2nc(=O)n(Cc3ccccn3)c3c2CCC3)cc1F
COc1ccc(-c2c3c(nc4sc(C(=O)Nc5cccc(OC)c5)c(N)c24)CC(C)(C)CC3=O)cc1
CCc1ccccc1NC(=O)Cn1c(=O)n(CCc2ccccc2)c(=O)c2sc3ccccc3c21
CCC(C)NC(=O)c1ccc(CNS(=O)(=O)c2ccc3c(c2)C(C)(C)C(=O)N3C)cc1 (stereo not drawn)
COc1ccc(CCNC(=O)c2ccc(Cn3c(=O)c4cccn4c4cccnc43)cc2)cc1OC
Cc1cc(C)c2c(n1)nn1c(C)c(CCC(=O)Nc3cccc(C)c3C)c(C)nc21
CCc1nn(CCCC(=O)NCc2ccccc2OC)c(=O)c2cc3occc3n12
CCOCCCn1c(=N)c(C(=O)NC2CCCCC2)cc2c(=O)n3ccccc3nc21
COc1ccc(N(C)C(=O)Cn2cnc3sc(C)c(S(=O)(=O)N4CCN(c5ncccn5)CC4)c3c2=O)cc1
CCc1ccccc1Nc1nn2c(=O)c3ccc(C(=O)NC(C)C)cc3nc2s1
COc1cccc(-c2cn3c(n2)sc2cc(C(=O)NC4CCCCC4)ccc23)c1
COc1cccc(NC(=O)C2CCC(CNS(=O)(=O)c3csc(C(N)=O)c3)CC2)c1 (stereo not drawn)
COc1ccccc1C(=O)n1nc(-c2ccccc2)nc1NCc1ccc(Cl)cc1
Cc1ccc(Nc2nc(N)nc(CSc3nc4ccccc4s3)n2)cc1
Cc1ccccc1Nc1nn2c(=O)c3ccc(C(=O)NCc4cccs4)cc3nc2s1
CCOC(=O)c1c(N)n(-c2ccc(CC)cc2)c2nc3ccccc3nc12
COc1ccc(S(=O)(=O)n2nc(C)c(S(=O)(=O)N3CCCCCC3)c2C)cc1C
O=C(CN1C(=O)CSc2ccc(S(=O)(=O)N3CCOCC3)cc21)NCCCN1CCCCC1

Activity change, negative = inhibition, inactive:
COc1cccc(CNC(=O)c2sc3ncccc3c2-n2c(C)ccc2C)c1OC 5.19%
O=c1cc(COc2ccccc2Cl)nc2scc(-c3ccccc3)n12 3.69%
COc1ccccc1NC(=O)Cn1nnc(C(=O)NCc2cccs2)c1N -5.8%
CCc1cccc(NC(=O)CSc2ncc3c(n2)-c2cc(Cl)ccc2N(C)S3(=O)=O)c1 -1.45%
CCOC(=O)c1ccc(N2C(=O)c3[nH]nc(-c4ccc(OC)cc4)c3C2c2cccc(O)c2)cc1 (stereo not drawn) 2.6%
COc1ccc(NC(=O)CCS(=O)(=O)c2nc(-c3ccc4c(c3)OCO4)cc(C(F)(F)F)n2)cc1OC 9.16%
Cc1ccc(Cl)cc1N1CCN(C(=O)Cn2nc(C)c3sc4ccccc4c3c2=O)CC1 0.544%
Cc1ccc(C2NC(=O)c3n[nH]c(-c4cccs4)c32)cc1 (stereo not drawn) -21.5%
COCCNC(=O)c1c(NC(=O)c2cc(=O)c3cc(C)cc(C)c3o2)sc2c1CCCC2 7.18%
COc1cc(C(=O)NCc2ccc3c(c2)CCN3C(=O)c2ccc(Cl)cc2)cc(OC)c1OC -2.79%
COC(=O)c1c(NC(=O)Cc2coc3cc(C)cc(C)c23)sc2c1CCC2 -7.9%
COc1ccc(C2CC(=O)c3cc(-c4nc(-c5cccc([N+](=O)[O-])c5)cs4)c(=O)n(-c4cccc(C)c4)c3C2)cc1 (stereo not drawn) 2.92%
Cc1ccc(NC(=O)CSc2nc3ccc(NC(=O)c4ccco4)cc3s2)cc1 -18.3%
COc1cccc(Cn2c(C)c(CNCc3cccc(C)c3)c(C(=O)O)c2C)c1 -2.41%
CC(=O)c1ccc(NC(=O)c2ccc(-c3nc(CSc4ccc(C)cc4)c(C)o3)cc2)cc1 -8.99%
CCc1ccc(NC(=O)c2cnc3c(-c4ccccc4)c(C)nn3c2C)cc1 -11.8%
O=C(Nc1ccccc1Cl)N1CCC2(CC1)Oc1ccccc1C(=O)N2Cc1ccc(F)cc1 4.97%
CC1(O)CC(c2nc(-c3ccc4ccc(-c5ccccc5)nc4c3)c3c(N)nccn23)C1 (stereo not drawn) 3.26%
Cc1cccc(-c2nc3c4ccccc4nc(N4CCN(c5cccc(Cl)c5)CC4)n3n2)c1 -6.53%
O=C(CSc1nc2ccccc2nc1Cc1ccccc1)N1CCc2ccccc21 47.8%
Cc1cccc(NC(=O)CSc2nc(-c3cccs3)nc3cc(=O)[nH]n23)c1 -1.82%
CCCCN(C)C(=O)CSc1c2c(nc3ccc(Cl)cc13)CCCC2 -4.51%
Cc1cc(C)c2oc(-c3cccc(NC(=O)c4cccc(F)c4)c3C)nc2c1 -8.01%
Cc1cc(C(=O)N2CCN(c3ccccc3F)CC2)c2c(C)nn(-c3ccccc3)c2n1 11.8%
Cc1cc(C)n2nc(CNS(=O)(=O)c3cccc(Cl)c3)nc2n1 5.82%
Cc1cccc(N2CCN(CCCNC(=O)Cn3ncc4c([nH]c5ccccc54)c3=O)CC2C)c1 (stereo not drawn) 1.14%
Cc1ccc(Cl)cc1N1CCN(C(=O)C2CCN(S(=O)(=O)c3cn(C)cn3)CC2)CC1 4.65%
Cc1cccc(Cn2c(=O)n(-c3cc(C)cc(C)c3)c(=O)c3oc4ccccc4c32)c1 -9.04%
Cc1ccc(Cl)cc1NC(=O)CN1C=NS(=O)(=O)c2ccccc21 -3.22%
CCc1ccc(S(=O)(=O)Nc2ccc3c(c2)sc(=O)n3C)cc1 14.8%
CCc1nn(CC(=O)NCc2ccccc2)c(=O)c2cccn12 4.3%
O=C(NCCS(=O)(=O)N1CCN(c2cccc(Cl)c2)CC1)C(c1ccccc1)c1ccccc1 -4.65%
Cc1ccc(-c2nc3cccc(C)n3c2Nc2ccc3c(c2)OCCO3)cc1 -4.63%
O=C(Cn1c(=O)n(Cc2ccco2)c(=O)c2oc3ccccc3c21)Nc1ccccc1 -2.2%
COc1cc(NC(=O)C2CCN(c3cnccn3)CC2)cc(OC)c1 95.1%
CCN(CCCNC(=O)c1cc2c(=O)n(C)c3ccccc3c2s1)c1ccccc1 -7.59%
COc1ccccc1NC(=O)CN1C(=O)C(c2ccc(F)cc2)=NC12CCCCC2 0.0488%
COc1ccccc1N1CCN(C(=O)C2CCN(S(=O)(=O)c3cn(C)cn3)CC2)CC1 1.59%
COc1cccc(N2CCN(C(=O)c3cnn(-c4ccccc4Cl)c3C3CCN(C(=O)OC(C)(C)C)CC3)CC2)c1 14.1%
CCCCc1ccc(NS(=O)(=O)c2cc3c4c(c2)CC(=O)N4CCC3)cc1 -6.71%
COc1cc(Nc2ncc(F)c(Nc3ccc4c(n3)N(COP(=O)(O)O)C(=O)C(C)(C)O4)n2)cc(OC)c1OC 1.85%
CCc1ccc2oc(-c3cc(NC(=O)c4cc(OC)c(OC)c(OC)c4)ccc3O)nc2c1 -0.308%
CCOCCCNC(=O)c1ccc2c(=O)n(CCc3ccccc3)c(=O)[nH]c2c1 -2.15%
CC(=O)c1ccc(NC(=O)CSc2nc(=O)n(Cc3ccccn3)c3c2CCC3)cc1 -6.55%
CN(C)c1ccc(CNC(=O)CN2C(=O)C3CCCCN3c3ccc(C(=O)N4CCCC4)cc32)cc1 (stereo not drawn) 6.35%
O=C(CCc1ccccc1)NC1CC(=O)N(c2cccc(F)c2)C1 (stereo not drawn) 3.11%
CCC(=O)N1CCc2cc(S(=O)(=O)NC(CC(C)C)C(=O)Nc3cccc(C)c3C)ccc21 (stereo not drawn) -9.09%
O=C(CCC1N=C2c3ccccc3N=C(SCc3ccc(Cl)cc3)N2C1=O)NCc1cccs1 (stereo not drawn) -2.73%
COc1ccc(CCNc2ncnc3c2cnn3-c2ccc(C)c(Cl)c2)cc1 5.03%
Cc1ccc(NS(=O)(=O)c2ccc3oc(=O)c4ncn(C)c4c3c2)cc1C -7.28%
Cc1ccc(N2CCN(C(=O)c3cccn4c(=O)c5ccc(Cl)cc5nc34)CC2C)cc1 (stereo not drawn) 3.29%
Cc1ccc(S(=O)(=O)C(CNC(=O)C(=O)NCCc2ccc(Cl)cc2)c2ccco2)cc1 (stereo not drawn) 24.6%
CCC(C)NC(=O)c1cc2n(n1)CCCN(Cc1ccc(C)cc1)C2=O (stereo not drawn) 3.87%
COc1ccc(CCNS(=O)(=O)c2c(C)nc3sccn3c2=O)cc1OC -4.07%
O=C(Cc1ccc(F)cc1)NCCc1csc2nc(-c3ccccc3F)nn12 -3.64%
Cc1c2cnn(CC(=O)NCc3ccc(Cl)cc3)c(=O)c2c(C)n1Cc1ccc(F)cc1 1.17%
CCn1cc(C(=O)N2CCN(c3ccccc3)CC2)c(=O)c2cc(S(=O)(=O)N(C)C)ccc21 16.5%
COc1ccc(C(CNC(=O)c2oc3cc(C)c(C)cc3c2C)N2CCCCC2)cc1 (stereo not drawn) -9.98%
Cc1cc(C)cc(NC(=O)CSc2ccc(-c3cccs3)nn2)c1 -2.29%
Cc1cc(NS(=O)(=O)c2ccc(NC(=O)COc3ccccc3Br)cc2)no1 8.49%
CCOc1ccccc1NS(=O)(=O)c1ccc(N2CCCCS2(=O)=O)cc1 0.972%
O=C(NCCc1csc(-c2ccc(C(F)(F)F)cc2)n1)C(=O)Nc1ccc(F)c(Cl)c1 -0.457%
CN1CCN(c2nc3c(S(=O)(=O)c4ccc(Cl)cc4)nnn3c3ccsc23)CC1 2.57%
CC(=O)Nc1ccc(C)cc1-c1nc2ccccc2n(CC(=O)c2ccc(C)c(C)c2)c1=O -3.5%
CCc1ccc(NC(=O)Cn2c(=O)n(-c3ccccc3C)c(=O)c3c2c2cc(OC)ccc2n3C)cc1 1.99%
Cc1nc(-c2ccc(F)cc2)sc1CCNC(=O)c1cccs1 -8.58%
Cc1ccc(N(CC(=O)N2CCN(c3ccccc3)CC2)S(=O)(=O)c2c(C)noc2C)cc1 -8.3%
Cc1ccc(C)c(NC(=O)Cn2c(SCC(=O)NCc3ccccc3)nc3ccccc32)c1 -14.4%
CC(C)Oc1ccc(C(=O)NCC(c2ccc(N(C)C)cc2)N2CCc3ccccc32)cc1 (stereo not drawn) 3.81%
Cc1ccc(-c2noc(-c3nnn(CC(=O)Nc4ccc(C)c(Cl)c4)c3N)n2)cc1 -6.39%
